From the supplement of paper PMC8047034
Counter-ions that a name gives are not always drawn. Some of the results follow. Repeats are few or missing, and single values can be far off.

What was measured:
OVCAR4 = experiment: log2 surviving fraction (library drug vs vehicle, or drug + carboplatin vs carboplatin alone; relative to plate median); ovarian cancer lines: OVCAR4 is platinum-sensitive and Ov4Carbo platinum-resistant; higher = more cell survival; settings: library drug concentration 10 µM, 7 days
Ov4Carbo = experiment: as above; settings: library drug concentration 10 µM, 7 days

Row | Structure (SMILES) | log2 surviving fraction (OVCAR4; carboplatin co-treatment 0 µM) | log2 surviving fraction (OVCAR4; carboplatin co-treatment 5 µM) | log2 surviving fraction (Ov4Carbo; carboplatin co-treatment 0 µM) | log2 surviving fraction (Ov4Carbo; carboplatin co-treatment 5 µM)
1 | c1ccc(CN(CC2=NCCN2)c2ccccc2)cc1 [Antazoline HCl] | 0.301 | 0.382 | 0.733 | -0.714
2 | C[C@]12C/C(=C/O)C(=O)C[C@@H]1CC[C@@H]1[C@@H]2CC[C@@]2(C)[C@H]1CC[C@]2(C)O [Oxymetholone] | -0.0167 | 0.333 | -0.689 | 0.701
3 | Cc1nc2n(c(=O)c1CCN1CCC(c3noc4cc(F)ccc34)CC1)CCCC2O (stereo not given) [Paliperidone (Invega)] | 0.497 | 0.961 | 1.1 | 0.972
4 | N#C[C@@H]1CCCN1C(=O)CNC12CC3CC(CC(O)(C3)C1)C2 [Vildagliptin (LAF-237)] | 0.841 | 0.123 | 0.834 | 0.158
5 | COc1cc(NC(C)CCCN)c2ncccc2c1 (stereo not given) [Primaquine Diphosphate] | 0.103 | 0.728 | 0.0666 | -0.0887
6 | COc1ccc(OC)c(C(O)C(C)N)c1 (stereo not given) [Methoxamine HCl] | 0.223 | 0.38 | -0.0332 | -0.833
7 | NC[C@@H]1O[C@H](O[C@H]2[C@@H](O)[C@H](O[C@@H]3[C@@H](O)[C@H](N)C[C@H](N)[C@H]3O[C@H]3O[C@H](CO)[C@@H](O)[C@H](O)[C@H]3N)O[C@@H]2CO)[C@H](N)[C@@H](O)[C@@H]1O [Paromomycin Sulfate] | 0.0345 | -0.665 | -0.127 | 0.287
8 | CN(C/C=C/C#CC(C)(C)C)Cc1cccc2ccccc12 [Terbinafine hydrochloride (Lamisil)] | 0.203 | 0.693 | 0.657 | 0.98
9 | CCC(=O)OCC(=O)[C@@]1(OC(=O)CC)[C@@H](C)C[C@H]2[C@@H]3CCC4=CC(=O)C=C[C@]4(C)[C@@]3(Cl)[C@@H](O)C[C@@]21C [Beclomethasone dipropionate] | 0.00216 | -1.12 | 0.41 | 1.08
10 | Cc1nnc(C(=O)NC(C)(C)c2nc(C(=O)NCc3ccc(F)cc3)c(O)c(=O)n2C)o1 [Raltegravir (MK-0518)] | 0.411 | 1.2 | -1.3 | 2.47
11 | OC1(c2ccc(Cl)c(C(F)(F)F)c2)CCN(CCCC(c2ccc(F)cc2)c2ccc(F)cc2)CC1 [Penfluridol] | -9.72 | -7.61 | -8.11 | -7.62
12 | CC1(C)Cc2c(-c3ccccc3)c(-c3ccc(Cl)cc3)c(CC(=O)O)n2C1 [Licofelone] | -1.5 | -0.69 | -0.126 | 0.267
13 | CN(C)CCC=C1c2ccccc2CCc2ccccc21 [Amitriptyline HCl] | -2.19 | -1.65 | -2.48 | -0.513
14 | Cc1cnc(NC(=O)C2=C(O)c3ccccc3S(=O)(=O)N2C)s1 [Meloxicam (Mobic)] | 0.779 | 0.42 | 0.0599 | 0.739
15 | C[C@H]1C[C@H]2[C@@H]3CCC4=CC(=O)C=C[C@]4(C)[C@H]3C(=O)C[C@]2(C)[C@@]1(O)C(=O)CO [Betapar (Meprednisone)] | 0.65 | 0.866 | 1.08 | 0.519
16 | Cc1ccc(C)c(OCCCC(C)(C)C(=O)O)c1 [Gemfibrozil (Lopid)] | -4.55 | -0.36 | -0.339 | -0.486
17 | CCCCN(CCCC)CCCOC(=O)c1ccc(N)cc1 [Butacaine] | 0.217 | 0.163 | -1.11 | 0.724
18 | Nc1nccs1 [Aminothiazole] | 0.64 | 0.157 | 1.01 | -0.28
19 | CCN(C)C(=O)Oc1cccc([C@H](C)N(C)C)c1 [Rivastigmine tartrate (Exelon)] | 0.757 | -0.268 | 1.6 | -0.0281
20 | CCCN1CCCC[C@H]1C(=O)Nc1c(C)cccc1C [Ropivacaine HCl] | 0.226 | 0.646 | -0.517 | -0.748
21 | Cc1c(Nc2ncccc2C(=O)O)cccc1C(F)(F)F [Flunixin meglumin] | 2.2 | 0.067 | 0.863 | 2.49
22 | Cc1c(-c2ccccc2)oc2c(C(=O)OCCN3CCCCC3)cccc2c1=O [Flavoxate HCl] | 0.753 | 1.67 | 1.08 | 1.12
23 | CCCCNc1cc(C(=O)O)cc(S(N)(=O)=O)c1Oc1ccccc1 [Bumetanide] | -0.398 | 2.38 | 0.855 | 0.813
24 | CS(=O)(=O)c1ccc([C@@H](O)[C@@H](CF)NC(=O)C(Cl)Cl)cc1 [Florfenicol] | -1.02 | -0.916 | -1.49 | -2.55
25 | CCCCCN(C)CCC(O)(P(=O)(O)O)P(=O)(O)O [Ibandronate sodium] | -4.78 | -3.73 | -6.31 | -0.467
